Results are given in words; binding and its absence hold for the method and conditions named. Binding seen in cells or lysates may run through a third protein. Some binding calls cover weakened binding; strength is not graded here. Tags and fused reporters may be left off the sequences shown. Each block holds one binder with its values, some of them ahead of it.
Key:
myc-tagged GGA1 = biological target: T1, myc-tagged GGA1 (UniProt Q9UJY5); experiment: co-IP; HEK293 cells co-transfected with Myc-GGA1 and pEGFP-C1, GFP-GGA1 or GFP-GGA1t for 48 h; lysis buffer 50 mM Tris-HCl pH 7.4, 140 mM NaCl, 1% Nonidet P-40; IP with anti-Myc antibodies and Dynabeads protein G at 4 °C; blot with anti-GFP
T1 sequence: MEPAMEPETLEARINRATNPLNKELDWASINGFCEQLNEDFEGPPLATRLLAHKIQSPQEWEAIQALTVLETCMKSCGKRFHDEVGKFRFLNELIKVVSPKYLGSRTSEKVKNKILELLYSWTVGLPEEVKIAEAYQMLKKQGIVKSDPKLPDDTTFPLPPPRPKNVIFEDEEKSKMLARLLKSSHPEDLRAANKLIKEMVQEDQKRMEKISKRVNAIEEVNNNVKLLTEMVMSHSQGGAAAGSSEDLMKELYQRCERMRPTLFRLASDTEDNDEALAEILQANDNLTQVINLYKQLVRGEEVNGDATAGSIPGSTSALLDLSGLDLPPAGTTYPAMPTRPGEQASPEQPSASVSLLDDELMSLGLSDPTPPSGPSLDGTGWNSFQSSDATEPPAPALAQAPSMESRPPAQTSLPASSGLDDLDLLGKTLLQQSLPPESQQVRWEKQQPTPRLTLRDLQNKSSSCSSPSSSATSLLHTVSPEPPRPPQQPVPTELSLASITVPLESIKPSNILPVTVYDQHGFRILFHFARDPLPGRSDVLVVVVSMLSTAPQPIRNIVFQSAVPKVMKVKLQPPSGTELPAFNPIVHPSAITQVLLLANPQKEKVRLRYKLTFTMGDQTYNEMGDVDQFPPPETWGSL

[1] = biological target: T2, GST fusion protein of the third intracellular loop (ICL3, 205-369 residues) of α2B-adrenergic receptor (UniProt P19328); experiment: pull-down; GST fusion proteins tethered to glutathione resin incubated with total cell lysates of transfected HEK293 cells; 20 mM Tris-HCl pH 7.5, 1% NP-40, 140 mM NaCl, 1 mM MgCl2, 4 °C, 4-6 h; blot with anti-GFP or anti-myc; only the target purified
T2 sequence: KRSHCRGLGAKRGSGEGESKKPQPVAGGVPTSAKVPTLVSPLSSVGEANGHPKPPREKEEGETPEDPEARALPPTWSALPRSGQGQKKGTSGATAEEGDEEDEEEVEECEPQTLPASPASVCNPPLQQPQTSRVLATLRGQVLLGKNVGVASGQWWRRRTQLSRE

Rluc8-GGA1 = biological target: T3, Rluc8-GGA1 (UniProt Q9UJY5); experiment: FRET or BRET; live HEK293 cells transfected with 0.1 μg GGA-Rluc8 and 1.5 μg GGA-Venus for 24 h; coelenterazine h; net BRET
T3 sequence: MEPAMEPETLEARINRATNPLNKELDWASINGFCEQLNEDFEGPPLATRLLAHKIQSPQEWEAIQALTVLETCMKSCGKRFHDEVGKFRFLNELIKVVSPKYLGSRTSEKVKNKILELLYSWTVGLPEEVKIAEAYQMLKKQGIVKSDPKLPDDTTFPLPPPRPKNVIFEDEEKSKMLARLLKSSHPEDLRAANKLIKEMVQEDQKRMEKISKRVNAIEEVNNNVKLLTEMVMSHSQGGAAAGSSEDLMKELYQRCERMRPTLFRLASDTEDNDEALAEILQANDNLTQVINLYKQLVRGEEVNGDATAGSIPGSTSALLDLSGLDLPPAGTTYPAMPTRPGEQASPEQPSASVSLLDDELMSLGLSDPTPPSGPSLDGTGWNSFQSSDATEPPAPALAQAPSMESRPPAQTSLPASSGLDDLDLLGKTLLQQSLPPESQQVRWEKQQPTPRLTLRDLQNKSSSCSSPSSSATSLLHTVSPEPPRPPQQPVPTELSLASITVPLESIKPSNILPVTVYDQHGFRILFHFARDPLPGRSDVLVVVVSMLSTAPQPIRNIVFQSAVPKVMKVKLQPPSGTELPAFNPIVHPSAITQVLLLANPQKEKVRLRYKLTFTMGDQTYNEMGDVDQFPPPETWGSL

[2] = biological target: T4, Rluc8-GGA1t (human (cDNA cloned from HEK293 cells)) (UniProt Q9UJY5); experiment: as above
T4 sequence: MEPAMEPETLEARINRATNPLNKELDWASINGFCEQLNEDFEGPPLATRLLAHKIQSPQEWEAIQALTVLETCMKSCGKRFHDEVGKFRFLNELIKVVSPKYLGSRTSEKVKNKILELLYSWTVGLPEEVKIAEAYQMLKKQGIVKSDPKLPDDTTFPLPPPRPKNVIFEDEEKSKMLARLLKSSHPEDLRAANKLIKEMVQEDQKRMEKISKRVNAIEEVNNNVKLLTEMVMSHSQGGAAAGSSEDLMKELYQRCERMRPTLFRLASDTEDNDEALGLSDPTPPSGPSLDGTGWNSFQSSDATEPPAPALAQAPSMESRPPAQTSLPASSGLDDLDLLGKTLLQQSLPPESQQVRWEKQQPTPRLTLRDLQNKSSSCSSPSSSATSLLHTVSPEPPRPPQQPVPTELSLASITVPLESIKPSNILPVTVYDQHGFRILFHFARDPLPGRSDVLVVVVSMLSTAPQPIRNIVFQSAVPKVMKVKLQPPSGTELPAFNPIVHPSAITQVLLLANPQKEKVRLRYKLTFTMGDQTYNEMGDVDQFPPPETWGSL

B1: GFP-tagged GGA1 (protein, UniProt Q9UJY5 1-639)
chain: MEPAMEPETLEARINRATNPLNKELDWASINGFCEQLNEDFEGPPLATRLLAHKIQSPQEWEAIQALTVLETCMKSCGKRFHDEVGKFRFLNELIKVVSPKYLGSRTSEKVKNKILELLYSWTVGLPEEVKIAEAYQMLKKQGIVKSDPKLPDDTTFPLPPPRPKNVIFEDEEKSKMLARLLKSSHPEDLRAANKLIKEMVQEDQKRMEKISKRVNAIEEVNNNVKLLTEMVMSHSQGGAAAGSSEDLMKELYQRCERMRPTLFRLASDTEDNDEALAEILQANDNLTQVINLYKQLVRGEEVNGDATAGSIPGSTSALLDLSGLDLPPAGTTYPAMPTRPGEQASPEQPSASVSLLDDELMSLGLSDPTPPSGPSLDGTGWNSFQSSDATEPPAPALAQAPSMESRPPAQTSLPASSGLDDLDLLGKTLLQQSLPPESQQVRWEKQQPTPRLTLRDLQNKSSSCSSPSSSATSLLHTVSPEPPRPPQQPVPTELSLASITVPLESIKPSNILPVTVYDQHGFRILFHFARDPLPGRSDVLVVVVSMLSTAPQPIRNIVFQSAVPKVMKVKLQPPSGTELPAFNPIVHPSAITQVLLLANPQKEKVRLRYKLTFTMGDQTYNEMGDVDQFPPPETWGSL
binding (myc-tagged GGA1): binds

B2: myc-tagged GGA1 (protein, UniProt Q9UJY5 1-639)
chain: MEPAMEPETLEARINRATNPLNKELDWASINGFCEQLNEDFEGPPLATRLLAHKIQSPQEWEAIQALTVLETCMKSCGKRFHDEVGKFRFLNELIKVVSPKYLGSRTSEKVKNKILELLYSWTVGLPEEVKIAEAYQMLKKQGIVKSDPKLPDDTTFPLPPPRPKNVIFEDEEKSKMLARLLKSSHPEDLRAANKLIKEMVQEDQKRMEKISKRVNAIEEVNNNVKLLTEMVMSHSQGGAAAGSSEDLMKELYQRCERMRPTLFRLASDTEDNDEALAEILQANDNLTQVINLYKQLVRGEEVNGDATAGSIPGSTSALLDLSGLDLPPAGTTYPAMPTRPGEQASPEQPSASVSLLDDELMSLGLSDPTPPSGPSLDGTGWNSFQSSDATEPPAPALAQAPSMESRPPAQTSLPASSGLDDLDLLGKTLLQQSLPPESQQVRWEKQQPTPRLTLRDLQNKSSSCSSPSSSATSLLHTVSPEPPRPPQQPVPTELSLASITVPLESIKPSNILPVTVYDQHGFRILFHFARDPLPGRSDVLVVVVSMLSTAPQPIRNIVFQSAVPKVMKVKLQPPSGTELPAFNPIVHPSAITQVLLLANPQKEKVRLRYKLTFTMGDQTYNEMGDVDQFPPPETWGSL
binding [1]: binds

B4: GFP-tagged GGA1 hinge domain (303-513 residues) (domain or fragment, UniProt Q9UJY5 303-513)
chain: VNGDATAGSIPGSTSALLDLSGLDLPPAGTTYPAMPTRPGEQASPEQPSASVSLLDDELMSLGLSDPTPPSGPSLDGTGWNSFQSSDATEPPAPALAQAPSMESRPPAQTSLPASSGLDDLDLLGKTLLQQSLPPESQQVRWEKQQPTPRLTLRDLQNKSSSCSSPSSSATSLLHTVSPEPPRPPQQPVPTELSLASITVPLESIKPSNIL
binding [1]: binds

B5: GFP-tagged GGA1t (protein, UniProt Q9UJY5)
chain: MEPAMEPETLEARINRATNPLNKELDWASINGFCEQLNEDFEGPPLATRLLAHKIQSPQEWEAIQALTVLETCMKSCGKRFHDEVGKFRFLNELIKVVSPKYLGSRTSEKVKNKILELLYSWTVGLPEEVKIAEAYQMLKKQGIVKSDPKLPDDTTFPLPPPRPKNVIFEDEEKSKMLARLLKSSHPEDLRAANKLIKEMVQEDQKRMEKISKRVNAIEEVNNNVKLLTEMVMSHSQGGAAAGSSEDLMKELYQRCERMRPTLFRLASDTEDNDEALGLSDPTPPSGPSLDGTGWNSFQSSDATEPPAPALAQAPSMESRPPAQTSLPASSGLDDLDLLGKTLLQQSLPPESQQVRWEKQQPTPRLTLRDLQNKSSSCSSPSSSATSLLHTVSPEPPRPPQQPVPTELSLASITVPLESIKPSNILPVTVYDQHGFRILFHFARDPLPGRSDVLVVVVSMLSTAPQPIRNIVFQSAVPKVMKVKLQPPSGTELPAFNPIVHPSAITQVLLLANPQKEKVRLRYKLTFTMGDQTYNEMGDVDQFPPPETWGSL
binding (myc-tagged GGA1): binds

Other lines, results leading:

binding (Rluc8-GGA1): binds
binding [2]: binds
B3: venus-GGA1 (protein, UniProt Q9UJY5 1-639)
chain: MEPAMEPETLEARINRATNPLNKELDWASINGFCEQLNEDFEGPPLATRLLAHKIQSPQEWEAIQALTVLETCMKSCGKRFHDEVGKFRFLNELIKVVSPKYLGSRTSEKVKNKILELLYSWTVGLPEEVKIAEAYQMLKKQGIVKSDPKLPDDTTFPLPPPRPKNVIFEDEEKSKMLARLLKSSHPEDLRAANKLIKEMVQEDQKRMEKISKRVNAIEEVNNNVKLLTEMVMSHSQGGAAAGSSEDLMKELYQRCERMRPTLFRLASDTEDNDEALAEILQANDNLTQVINLYKQLVRGEEVNGDATAGSIPGSTSALLDLSGLDLPPAGTTYPAMPTRPGEQASPEQPSASVSLLDDELMSLGLSDPTPPSGPSLDGTGWNSFQSSDATEPPAPALAQAPSMESRPPAQTSLPASSGLDDLDLLGKTLLQQSLPPESQQVRWEKQQPTPRLTLRDLQNKSSSCSSPSSSATSLLHTVSPEPPRPPQQPVPTELSLASITVPLESIKPSNILPVTVYDQHGFRILFHFARDPLPGRSDVLVVVVSMLSTAPQPIRNIVFQSAVPKVMKVKLQPPSGTELPAFNPIVHPSAITQVLLLANPQKEKVRLRYKLTFTMGDQTYNEMGDVDQFPPPETWGSL

binding (Rluc8-GGA1): binds
binding [2]: binds
B6: venus-GGA1t (protein, UniProt Q9UJY5)
chain: MEPAMEPETLEARINRATNPLNKELDWASINGFCEQLNEDFEGPPLATRLLAHKIQSPQEWEAIQALTVLETCMKSCGKRFHDEVGKFRFLNELIKVVSPKYLGSRTSEKVKNKILELLYSWTVGLPEEVKIAEAYQMLKKQGIVKSDPKLPDDTTFPLPPPRPKNVIFEDEEKSKMLARLLKSSHPEDLRAANKLIKEMVQEDQKRMEKISKRVNAIEEVNNNVKLLTEMVMSHSQGGAAAGSSEDLMKELYQRCERMRPTLFRLASDTEDNDEALGLSDPTPPSGPSLDGTGWNSFQSSDATEPPAPALAQAPSMESRPPAQTSLPASSGLDDLDLLGKTLLQQSLPPESQQVRWEKQQPTPRLTLRDLQNKSSSCSSPSSSATSLLHTVSPEPPRPPQQPVPTELSLASITVPLESIKPSNILPVTVYDQHGFRILFHFARDPLPGRSDVLVVVVSMLSTAPQPIRNIVFQSAVPKVMKVKLQPPSGTELPAFNPIVHPSAITQVLLLANPQKEKVRLRYKLTFTMGDQTYNEMGDVDQFPPPETWGSL

binding [1]: no binding
B7: myc-tagged GGA1t (protein, UniProt Q9UJY5)
chain: MEPAMEPETLEARINRATNPLNKELDWASINGFCEQLNEDFEGPPLATRLLAHKIQSPQEWEAIQALTVLETCMKSCGKRFHDEVGKFRFLNELIKVVSPKYLGSRTSEKVKNKILELLYSWTVGLPEEVKIAEAYQMLKKQGIVKSDPKLPDDTTFPLPPPRPKNVIFEDEEKSKMLARLLKSSHPEDLRAANKLIKEMVQEDQKRMEKISKRVNAIEEVNNNVKLLTEMVMSHSQGGAAAGSSEDLMKELYQRCERMRPTLFRLASDTEDNDEALGLSDPTPPSGPSLDGTGWNSFQSSDATEPPAPALAQAPSMESRPPAQTSLPASSGLDDLDLLGKTLLQQSLPPESQQVRWEKQQPTPRLTLRDLQNKSSSCSSPSSSATSLLHTVSPEPPRPPQQPVPTELSLASITVPLESIKPSNILPVTVYDQHGFRILFHFARDPLPGRSDVLVVVVSMLSTAPQPIRNIVFQSAVPKVMKVKLQPPSGTELPAFNPIVHPSAITQVLLLANPQKEKVRLRYKLTFTMGDQTYNEMGDVDQFPPPETWGSL
